# Laboratory results reported in the supplement of paper PMC3334620.
# Whole data set: some 33,000 sequences, median “E-score (-0.5 to 0.5)” near -0.016, cut for the highest 2% near 0.32. Some of the results follow.
# Molecular target: T1, Stp1 (UniProt B3LFK1)
# T1 sequence: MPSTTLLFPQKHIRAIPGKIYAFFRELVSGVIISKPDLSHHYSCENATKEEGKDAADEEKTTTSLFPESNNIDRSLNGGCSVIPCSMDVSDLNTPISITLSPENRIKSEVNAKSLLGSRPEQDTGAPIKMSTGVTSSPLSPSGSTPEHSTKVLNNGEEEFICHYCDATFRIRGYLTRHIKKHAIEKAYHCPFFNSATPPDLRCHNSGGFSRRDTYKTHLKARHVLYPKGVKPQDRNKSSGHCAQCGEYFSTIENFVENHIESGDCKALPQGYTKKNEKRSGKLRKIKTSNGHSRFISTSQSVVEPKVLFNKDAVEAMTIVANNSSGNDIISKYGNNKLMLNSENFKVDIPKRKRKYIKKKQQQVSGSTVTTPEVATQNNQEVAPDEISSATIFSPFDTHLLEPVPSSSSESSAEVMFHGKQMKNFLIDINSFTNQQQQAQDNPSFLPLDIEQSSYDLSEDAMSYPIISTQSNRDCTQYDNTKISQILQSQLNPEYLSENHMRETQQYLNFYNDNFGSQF
# Experiment: PBM E-score (8-mer binding enrichment) (E-score (-0.5 to 0.5)); higher = stronger / more preferred TF binding; most listed sequences are background and not binding sites
# Settings: protein concentration: 200 nM; construct: GST-full length
# Procedure, shortened: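 PURExpress in vitro transcription/translation supplied GST-tagged yeast transcription factors, either full-length or DNA-binding domain. Applied at about 100-200 nM to universal all-10-mer Agilent arrays double-stranded by primer extension, the bound protein was detected with fluorescent anti-GST. E-scores, modified Wilcoxon-Mann-Whitney statistics, were given by the Universal PBM Analysis Suite to ungapped eight-base words pooled with their reverse complements after masliner normalisation.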
row,Sequence,PBM E-score
1,GGGTCGAC,-0.151
2,CCAAGGCA,0.173
3,ACCGTGTC,0.155
4,GACCCAAC,-0.0726
5,ACACTTCC,0.00565
6,AAGCTTTA,-0.0675
7,CAGCGTAC,-0.112
8,CTCCTTTC,-0.138
9,ATATAGGA,-0.0171
10,CCATCACC,-0.291
11,GCGGGGGA,-0.304
12,ATCACTTG,-0.135
13,GGTCGCAA,-0.119
14,CGTATAAA,0.319
15,ATGTGATC,0.117
16,GCCTATCA,0.073
17,ATGTAAGC,0.0689
18,AGGCCTTA,-0.148
19,CAATGACG,-0.0834
20,TATTATCA,0.0807
21,GTAATCGA,0.138
22,TGGAAACA,-0.173
23,GAGATTCA,-0.104
24,AGTGGCTA,0.08
25,ACGAACAC,0.138

row,Sequence,PBM E-score
1,CCTAAAGA,0.0446
2,CACCGTAC,0.121
3,AAATCCTG,-0.00931
4,GGATTTTA,-0.113
5,CTACGTAG,0.037
6,AAGCGTCT,-0.159
7,CATGCTTA,-0.106
8,TCTAATCA,0.0164
9,AATAGACC,-0.159
10,ACCGTAAT,-0.0371
11,GATGTCAC,-0.183
12,ATGAGAAC,0.0468
13,ATCATGAC,0.00813
14,ACAAGCGG,0.203
15,ACTATCAA,0.0687
16,CCAGCCGA,-0.179
17,CGGAACTC,-0.147
18,CTCGTTTA,0.101
19,CGTTTCCA,0.159
20,CCCTTGAC,-0.126
21,CAACTATG,-0.0146
22,CGATTTCA,-0.0348
23,CAGGACTA,-0.153
24,CGGCGTCA,0.399
25,CTTTTTAA,-0.0582

row,Sequence,PBM E-score
1,CTCTGCAG,-0.172
2,AAGATCTT,-0.00602
3,CCCATCTC,-0.0264
4,CGCGACAG,-0.0374
5,CGCACAGA,0.0304
6,CTCCGTAA,-0.0763
7,AAGCGGAG,-0.0617
8,GAGGCCCA,-0.271
9,AGCCCCTA,-0.372
10,AAAGACAG,0.0275
11,CCCAGTAG,-0.184
12,GGCATAAA,0.314
13,GTAGGAGA,-0.262
14,AGAGGGCG,0.307
15,GACCTGAC,-0.166
16,ACAGTGAA,0.0428
17,AAGTTATC,-0.0807
18,CTCGAGAG,-0.145
19,GGATAACC,-0.222
20,CCTACTCA,-0.0428
21,CGTTTCCC,-0.109
22,AATGTACC,-0.118
23,TGAACTAA,0.118
24,CATCCTGA,0.0864
25,CCATGGTA,-0.117

row,Sequence,PBM E-score
1,ACGGTGAG,0.0989
2,GAGATCGC,-0.0892
3,AGAAACGA,0.0281
4,ATGCCCCG,0.0467
5,ACATCCCC,-0.136
6,ACACGTTG,-0.0454
7,TACCGCAA,0.117
8,CCTCTGAG,-0.176
9,CCCCCAAA,-0.296
10,ACCCGTTC,0.0622
11,CCTGAGAG,-0.283
12,AAGCCACC,-0.249
13,CGAGCTAG,-0.0273
14,ATGACAAA,-0.00771
15,AATTGGCT,0.129
16,ACTAAACT,0.134
17,CGTTTAAC,0.0581
18,GTGTCATA,0.0704
19,CGAAGGCG,0.128
20,ATCTAACC,-0.0609
21,AGAGGACA,-0.18
22,CCCAACGG,-0.0673
23,AGTTCGCA,0.0346
24,ATCGCGAC,-0.00642
25,AACCGCAT,0.188

row,Sequence,PBM E-score
1,CCCTACCA,0.0901
2,CTACTGTA,0.0443
3,TGGTCTAA,-0.0611
4,AAAATTGA,0.118
5,AGTTTGCC,0.157
6,GCGGCAGA,0.261
7,CGAAAGGC,0.355
8,GACAGGCC,-0.184
9,CGAAGCGC,-0.0203
10,TACTCTCA,-0.0702
11,GATTGTGA,-0.0398
12,GACAGCTC,-0.34
13,GTTGAGCA,-0.119
14,GAAAGGAC,0.0713
15,ATAGTTAA,-0.0226
16,CCGAGCCC,-0.29
17,CGCCGGTC,0.226
18,AGTGTACG,0.114
19,AGCTACCG,-0.16
20,ATCCAATA,0.0666
21,CCCAACCC,-0.174
22,CAGAACTA,-0.124
23,ACGCCACT,0.124
24,CGTTAGCC,0.00817
25,TAAGCGGA,-0.0184

row,Sequence,PBM E-score
1,CGCTCAAA,0.0128
2,GATAATTA,0.206
3,CACTGACG,0.024
4,CGCAGCCG,0.0895
5,AAATAGGA,0.0865
6,AACTGCTG,-0.201
7,AGAGGGTA,-0.144
8,CCGTTCTC,0.126
9,CGCTGCAA,0.062
10,AAGGCGCT,0.396
11,GCCGCTCC,0.398
12,ACACCTGT,-0.0431
13,CAGTTTGA,0.047
14,AATTCTCT,-0.0728
15,GTCACAAA,-0.0375
16,CCCCGGAG,-0.325
17,GCATCAGA,0.0787
18,AACGTCTT,-0.0314
19,GTACCCTA,-0.11
20,GTCTGCCA,-0.0635
21,AATCTGCC,-0.0157
22,ACGAAACA,0.0445
23,GTCTCCGA,-0.0488
24,ACTGGCCA,-0.155
25,AAATTAAA,0.213

row,Sequence,PBM E-score
1,TATGTGCA,0.0127
2,CGCTGACG,-0.218
3,TATAAACA,0.106
4,CTGCAAGC,-0.167
5,CCAGCAGA,0.0777
6,CATCGGAG,-0.251
7,CTGATCAA,-0.186
8,ACAGTGTG,0.0421
9,AGCGTGTA,0.0473
10,AATCTAGG,0.0359
11,ACTGATGA,-0.00519
12,GAAACCGA,-0.117
13,GTGGGTGA,-0.00775
14,ACATAATA,0.271
15,CCTCAATC,0.0837
16,CCAAAAGG,0.0993
17,GTTGATCA,0.0772
18,GAATAGAC,4e-05
19,CTTGGCAA,-0.119
20,GGAGTACA,-0.00077
21,CAATGCTG,-0.0733
22,TGACCTCA,-0.179
